No constants are given. Whether binding was seen depends on the method and setting. Binding seen in cells or lysates may run through a third protein. Some results given as binding are weak or reduced against the parent protein; the word gives no strength. For some of these results: Where a sequence is shown, tags or fusion partners need not be part of it.

Experiment [1] has as its target T1, G0S2-ΔHD (deletion of the hydrophobic domain) (mouse) (UniProt Q61585).
T1 sequence: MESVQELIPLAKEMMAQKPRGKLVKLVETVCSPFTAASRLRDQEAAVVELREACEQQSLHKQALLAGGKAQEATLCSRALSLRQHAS
Kind of experiment: co-IP; endogenous nucleolin and ectopic V5-tagged G0S2 (wild type or deletion mutants) in lysates of transduced NIH3T3 cells; 150 mM NaCl, 50 mM Tris pH 8, 1% Triton X-100; immunoblot.

Experiment [2] deals with T2, G0S2^1–26 (deletion of the C-terminal and HD domains) (mouse) (UniProt Q61585).
T2 sequence: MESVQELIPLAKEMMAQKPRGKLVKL
The experiment is described as above.

In experiment [3] the target is T3, G0S2^43–103 (deletion of the N-terminal and HD domains) (mouse) (UniProt Q61585).
T3 sequence: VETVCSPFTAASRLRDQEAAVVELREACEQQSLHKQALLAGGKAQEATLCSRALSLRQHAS
Described as above.

Experiment [4] concerns the target T4, V5-tagged G0S2 (G0/G1 switch gene 2), murine, full length (mouse) (UniProt Q61585).
T4 sequence: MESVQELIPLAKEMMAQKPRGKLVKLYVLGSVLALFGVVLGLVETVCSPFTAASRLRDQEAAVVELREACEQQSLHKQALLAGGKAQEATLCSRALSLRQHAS
Described as above.

Experiment [5] has as its target T4, V5-tagged G0S2 (G0/G1 switch gene 2), murine, full length (mouse). The experiment can be described thus: co-IP; reciprocal: anti-V5 or anti-nucleolin immunoprecipitation from lysates of EL4 and murine BM cells transduced with MIGR1 or MIGR1-G0S2 (V5-tagged); 150 mM NaCl, 50 mM Tris pH 8, 1% Triton X-100; immunoblot.
The target in experiment [6] is FLAG-tagged nucleolin Ncl-ΔRBDs (deletion of all of the RBD domains) (mouse) (UniProt P09405). Kind of experiment: co-IP; NIH3T3 cells co-transfected with V5-tagged G0S2 and FLAG-tagged nucleolin constructs, lysed after 48 h; 150 mM NaCl, 50 mM Tris pH 8, 1% Triton X-100; immunoblot.
For experiment [7], the target named is T5, FLAG-tagged nucleolin Ncl^1–286 (N-terminal domain, including the nuclear localization signal) (mouse) (UniProt P09405).
T5 sequence: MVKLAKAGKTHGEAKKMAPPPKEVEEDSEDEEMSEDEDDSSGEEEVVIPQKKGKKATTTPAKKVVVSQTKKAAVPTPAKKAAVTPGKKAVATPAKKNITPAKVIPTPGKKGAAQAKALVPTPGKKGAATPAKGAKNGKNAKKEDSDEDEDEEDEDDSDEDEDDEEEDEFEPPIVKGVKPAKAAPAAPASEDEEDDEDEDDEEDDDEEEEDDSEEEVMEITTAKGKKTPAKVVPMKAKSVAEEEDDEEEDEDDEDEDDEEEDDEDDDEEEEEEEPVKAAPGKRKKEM
Described as above.

The target of experiment [8] is FLAG-tagged nucleolin Ncl^287–707 (C-terminal domain, containing both the RBD and RGG-rich domains) (mouse) (UniProt P09405). The description is as above.
Experiment [9] has as its target FLAG-tagged nucleolin, wild type, murine, full length (mouse) (UniProt P09405). The experiment is described as above.
Experiment [10] addresses nucleolin, endogenous (mouse cells) (mouse (endogenous in EL4, murine BM cells, NIH3T3)) (UniProt P09405). The experiment can be described thus: co-IP; reciprocal: anti-V5 or anti-nucleolin immunoprecipitation from lysates of EL4 and murine BM cells transduced with MIGR1 or MIGR1-G0S2 (V5-tagged); 150 mM NaCl, 50 mM Tris pH 8, 1% Triton X-100; immunoblot.

As to “nucleolin, endogenous (mouse cells) (from UniProt P09405 1-707)”, the binding entry in experiment [1] was “no binding”; in [2] it was “no binding”; in experiment [3], “no binding”; in experiment [4] it was “binds”; in experiment [5], “binds”.

B1: V5-tagged G0S2 (G0/G1 switch gene 2), murine, full length (protein, UniProt Q61585 1-103)
chain: MESVQELIPLAKEMMAQKPRGKLVKLYVLGSVLALFGVVLGLVETVCSPFTAASRLRDQEAAVVELREACEQQSLHKQALLAGGKAQEATLCSRALSLRQHAS
Take B1: the binding entry in experiment [6] is on record as “binds”; in experiment [7] it was “no binding”; in [8], “binds”; in [9], “binds”; in experiment [10] it was “binds”.

For the origin of these results see publication PMC3365016.
